The other results are listed elsewhere or left out. At the low end of the ranking the order means little. The protein was read in a cell extract, so binding may be indirect.

The target of the assay is T1, HNF4alpha2 (COS-7 nuclear extract) (UniProt P41235).
T1 sequence: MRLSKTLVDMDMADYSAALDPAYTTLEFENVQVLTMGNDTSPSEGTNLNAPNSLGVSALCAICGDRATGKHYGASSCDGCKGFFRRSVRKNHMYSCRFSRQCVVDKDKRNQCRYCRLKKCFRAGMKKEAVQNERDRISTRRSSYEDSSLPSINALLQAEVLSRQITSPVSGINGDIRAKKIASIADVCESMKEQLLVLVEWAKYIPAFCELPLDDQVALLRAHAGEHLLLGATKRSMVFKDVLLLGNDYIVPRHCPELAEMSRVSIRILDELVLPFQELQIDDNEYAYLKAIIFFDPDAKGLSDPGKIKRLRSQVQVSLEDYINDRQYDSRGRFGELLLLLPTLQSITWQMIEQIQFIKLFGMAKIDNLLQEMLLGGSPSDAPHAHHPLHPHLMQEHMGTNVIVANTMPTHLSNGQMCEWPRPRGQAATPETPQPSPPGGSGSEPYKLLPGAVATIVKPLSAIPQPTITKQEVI
As to the kind of experiment: protein-binding microarray. The conditions noted are these: COS-7 nuclear extract on double-stranded Agilent 4x180k PBM; binding buffer, salt, pH and temperature not given; high values mean tight binding; double strand, one strand shown; sequences stand for … in …GCCTAGGGAGATTAGAGTATCGGTCGA
As for CAGAGAGATACTGAACCTTGCACTATTGAC, the binding signal (log2 normalized intensity) is 2.89.
For the sequence TTCCCCAGCGACTGAGCTGAGGTTAGAATC, the binding signal (log2 normalized intensity) is -0.674.
Then CTGTTTTACTGGGGCCCATTGTATGAGGGT, with 1.39; and GATCCAAAAGACCCAGGTGTGTTGCAACTT, with 0.84.
Regarding CTGCAGTCAGGGGTTAGGCCTGGAACCTGT, the binding signal (log2 normalized intensity) came out at 0.864.
Then ATCAAAGGTCAAAATATCTGATCGATATCC, with 2.68; and GGCATATCTCTGTCCCTGATACCATTATCT, with 0.312; and TTTAGGAAGAGATCAAAGTTCTGTTTGTAT, with 2.65.
Take CAGCTGGTCACACTGCACCTGCCTGAACAA: the binding signal (log2 normalized intensity) is -1.2.
As for GGAAGATAAGCTATTATTTACATTGTTGGG, the figure is 0.24; as for CGGTCCTCGCTCGCCCGAGCGCTGCTTCTC, -1.23.
TGAGACTCAAGGCAAGTTGCTTCCACCTAT: the binding signal (log2 normalized intensity) was -1.1.
Regarding ATCTGGTGGTGGTTCTTGTTTCATTGCACA, the binding signal (log2 normalized intensity) was 1.84.
CTTGGCCTGCATAGCACTTTCATAACTTCT: the binding signal (log2 normalized intensity) was determined as 0.474.
Then AGGTCAGAGTTGAACCCTTGGGGCTTTTGC, with 1.98; and AGATACAGTTTGAAAAACACTGGATAAAGT, with -0.736.
Consider ATACAGATTTCATCTAAGGACAAACTTTGT, for which the binding signal (log2 normalized intensity) was 1.84.
For AATTGGGGGAGAGTTTAAGGTTGTACTTTG, the binding signal (log2 normalized intensity) was determined as 3.4.
As for CTACAGTCCTGCCACATCCCCCACACCGAG, the binding signal (log2 normalized intensity) was 4.36.
Then AGATGGAATGTTGTGTCTTCCAGTTCATTT, with 1.33; and TTGCAGACCTTGGTCAAAGTGACACATTCC, with -0.628; and GGGAAGGCAGGTCTCTCTCATTCACACCCT, with -1.05.
Take GTTAAAGTTGCCTGATGACAACTGAATGTG: the binding signal (log2 normalized intensity) was found to be 0.26.
Regarding GTCATCAGATAGATGGTCAGTGAACTGTGG, the binding signal (log2 normalized intensity) stood at 1.65.
As for TGGAATGCTTTTCTAGAACCAGGAATCCTA, the figure is -1.02; as for TCTTGGACTCTTGGACTCCCTGAAGAAACA, 3.82.
With AAGGGCTGAGGTTAAAGTCCACATTCTTTA, the binding signal (log2 normalized intensity) was found to be 5.76.
On to CAAGTTATCTCGGGGTGGCATGTATCTGAT, for which the binding signal (log2 normalized intensity) is 1.6.
In the case of CTTGCTGCATTCCCCCACCTACTGTCTCCT, the binding signal (log2 normalized intensity) was 2.9.
Then GTAACCTCAAAGGAGGTCAGAACTGTGGAC, with 1.22; and CTTCTTGGATGCCCTTCCCTAACCCTTCAA, with 2.5; and GTGAGGGAGGAGACTTTGACCTCTGCTAGG, with 5.43.
As for TCAGATGAACTTTGCCTTAGGCCATTGTCC, the figure is 3.25.
As for TTCTTGGTGGAAGTGGTGATTTCGTTGAAA, the figure is 0.929.
As for TTGTGGAGGATGGGAAGTCCAAAGTCTGCA, the binding signal (log2 normalized intensity) was determined as 4.39.
On to AGATATCAGAAATGCATGAGTGACCTTTAT, for which the binding signal (log2 normalized intensity) worked out at 4.97.
As for GGGGGCCAGTTCACTCAGTCCACATGGTGT, the figure is 0.451; as for CATTCCCCAGGCAATCTTCCAGTCCACAGT, 1.39; as for GAGGGTTCTCACTCCTCTATCAGTACAAAT, 0.701.
CCCCTCGGCCGCTCCCTCCCCTCCTCCCTT: the binding signal (log2 normalized intensity) turned out to be 5.35.
Then TCTTGGAAACATTTTACTCACCCCTTGCTG, with 2.06.
On to CATTGCTGACCTTGCCTCTGTGCTCCCAGT, for which the binding signal (log2 normalized intensity) is -0.0996.
Then GAATTTTGTGCAATTACACAACTTCCTTCA, with -0.938; and TCTGTGTGGTAAAAGCACTGAACCCTGTTT, with 2.07.
As for ACAAACACAGAAGTGGACCTTCACCAGATA, the figure is 1.62; as for CCCAGAAGAATGGGCAGAAGTAGGATAAGG, -1.21; as for TGTTCTAATGAGGCCACTCCTGATAGCTAG, -0.544.
Then CAGACACACAATATTATGTTTTGTTATCTG, with 0.956; and GGTTGCCCTAGTGACTCTAGGAACCTTTCT, with -0.0376.
Regarding AGCCCAAGGCAAAGCAGATGTGCTAACACT, the binding signal (log2 normalized intensity) was -1.17.
In the case of TGGTCAATATCCACACAAACCCAGTTTGCA, the binding signal (log2 normalized intensity) was -1.06.
Turning to GGATACCTAAGCCCCATGCTGATAAGGGCC, the binding signal (log2 normalized intensity) is -1.11.
As for AGAGAAAAATCTTCAAACAACCCTTCGCTA, the figure is -1.15.
With TGGCATTTGAGACTAGCCACAATAGGCCCT, the binding signal (log2 normalized intensity) was -0.945.
As for CCAATTCACAGAACTCCCTAAGTGGCCTCA, the binding signal (log2 normalized intensity) is -0.276.
Turning to AACTTTGCAGCAGATAATTACCTGGACTCT, the binding signal (log2 normalized intensity) is 3.6.
Regarding AAGAGTTAAAAAAAAAAAAAACTATCAAAC, the binding signal (log2 normalized intensity) was -1.07.
Then GTAGATTAAATCCTCGAAGAGTTTGAACTA, with 0.864; and CCGGACATGGAGAGGTGAGACACGTGTGCC, with -0.117; and TTTGATCCTGATGACTGCAGAGCTTGCTCT, with -0.687.
Then TTATTAGTCCAAGAGATTTCTACAGATAGC, with -1.08.
As for TACACACATTCCAATCTTCTTTTCCAGTCT, the figure is 1.44.
As to CTGGAATCACGTTCGCCTAATTTGAAGCAT, the binding signal (log2 normalized intensity) was -0.886.
For CTATCTTATCTGGGCCAGGTATTTGGACTT, the binding signal (log2 normalized intensity) is 4.29.
Then TAGAACAAAGATCAAAGCAGTATCATCAAC, with -1.11; and TTCCATAGATAAGAGCTGAGGAAGTGCTGA, with -1.12.
For the sequence TTCCTCCTGGCCTCTCTGAGCAGCCTTCCC, the binding signal (log2 normalized intensity) is -1.09.
Turning to CCTCTGAAAGCACTTGTAGGCCTGTGTGCA, the binding signal (log2 normalized intensity) was determined as 1.09.
Then TTTCAGATGGACCAAAGGTCTTGTACAAAG, with 2.29; and CCACCAAGGACTGGACCACCTCCTCAAAGA, with -1.06; and AGCTGCTGGCAGGAATTTTAAAAGTATACT, with -1.09.
As to AGTCCATTCCTTGGACTCTGCCACTGGTTT, the binding signal (log2 normalized intensity) came out at 2.87.

The values above are taken from article PMC10726135.
